# Source: the supplement of paper PMC8728848
# Some of the results follow.
# B1: Pul13 (Thermotoga maritima), O33840 (protein)
# chain: ETTIVVHYHRYDGKYDGWNLWIWPVEPVSQEGKAYQFTGEDDFGKVAVVKLPMDLTKVGIIVRLNEWQAKDVAKDRFIEIKDGKAEVWILQGVEEIFYEKP
# Tests used:
# Test in all cases: glycan array binding signal (z-score within array); higher = stronger binding
# Conditions in all cases: glycan notation: IUPAC condensed, linker removed
# [1] = molecular target: Glc(a1-2)Glc
# In short: (§1)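 Glycan array data were curated from 3228 arrays in the Consortium for Functional Glycomics database and kept only where the protein sequence was available. Glycan names were converted to IUPAC-condensed notation, and columns mapping to the same glycan were averaged. The binding signal is a within-array Z-score, averaged across arrays of the same protein sequence at different concentrations or buffers and across linkers. Negative Z-scores can be read as non-binding.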
# [2] = molecular target: Glc(a1-2)Glc(a1-2)Glc
# In short: as §1
# [3] = molecular target: Glc(a1-2)Glc(a1-2)Glc(a1-2)Glc
# In short: as §1
# [4] = molecular target: Glc(a1-2)Glc(a1-2)Glc(a1-2)Glc(a1-2)Glc
# In short: as §1
# [5] = molecular target: Glc(a1-2)Glc(a1-2)Glc(a1-2)Glc(a1-2)Glc(a1-2)Glc
# In short: as §1
# [6] = molecular target: Glc(a1-2)Glc(a1-2)Glc(a1-2)Glc(a1-2)Glc(a1-2)Glc(a1-2)Glc
# In short: as §1
# [7] = molecular target: Glc(a1-2)Glc(a1-2)Glc(a1-2)Glc(a1-2)Glc(a1-2)Glc(a1-2)Glc(a1-2)Glc
# In short: as §1
# [8] = molecular target: Glc(a1-2)Glc(a1-2)Glc(a1-2)Glc(a1-2)Glc(a1-2)Glc(a1-2)Glc(a1-2)Glc(a1-2)Glc
# In short: as §1
# [9] = molecular target: Glc(a1-3)Glc
# In short: as §1
# [10] = molecular target: Glc(a1-3)Glc(a1-3)Glc
# In short: as §1
# [11] = molecular target: Glc(a1-3)Glc(a1-3)Glc(a1-3)Glc
# In short: as §1
# [12] = molecular target: Glc(a1-3)Glc(a1-3)Glc(a1-3)Glc(a1-3)Glc
# In short: as §1
# [13] = molecular target: Glc(a1-3)Glc(a1-3)Glc(a1-3)Glc(a1-3)Glc(a1-3)Glc
# In short: as §1
# [14] = molecular target: Glc(a1-3)Glc(a1-3)Glc(a1-3)Glc(a1-3)Glc(a1-3)Glc(a1-3)Glc
# In short: as §1
# [15] = molecular target: Glc(a1-3)Glc(a1-3)Glc(a1-3)Glc(a1-3)Glc(a1-3)Glc(a1-3)Glc(a1-3)Glc
# In short: as §1
# [16] = molecular target: Glc(a1-3)Glc(a1-3)Glc(a1-3)Glc(a1-3)Glc(a1-3)Glc(a1-3)Glc(a1-3)Glc(a1-3)Glc
# In short: as §1
# [17] = molecular target: Glc(a1-3)Glc(a1-3)Glc(a1-3)Glc(a1-3)Glc(a1-3)Glc(a1-3)Glc(a1-3)Glc(a1-3)Glc(a1-3)Glc
# In short: as §1
# [18] = molecular target: Glc(a1-3)Glc(a1-3)Glc(a1-3)Glc(a1-3)Glc(a1-3)Glc(a1-3)Glc(a1-3)Glc(a1-3)Glc(a1-3)Glc(a1-3)Glc
# In short: as §1
# [19] = molecular target: Glc(a1-3)Glc(a1-3)Glc(a1-3)Glc(a1-3)Glc(a1-3)Glc(a1-3)Glc(a1-3)Glc(a1-3)Glc(a1-3)Glc(a1-3)Glc(a1-3)Glc
# In short: as §1
# [20] = molecular target: Glc(a1-3)Glc(a1-3)Glc(a1-3)Glc(a1-3)Glc(a1-3)Glc(a1-3)Glc(a1-3)Glc(a1-3)Glc(a1-3)Glc(a1-3)Glc(a1-3)Glc(a1-3)Glc
# In short: as §1
# [21] = molecular target: Glc(a1-4)Glc
# In short: as §1
# [22] = molecular target: Glc(a1-4)Glc(a1-4)Glc
# In short: as §1
# [23] = molecular target: Glc(a1-4)Glc(a1-4)Glc(a1-4)Glc
# In short: as §1
# [24] = molecular target: Glc(a1-4)Glc(a1-4)Glc(a1-4)Glc(a1-4)Glc
# In short: as §1
# [25] = molecular target: Glc(a1-4)Glc(a1-4)Glc(a1-4)Glc(a1-4)Glc(a1-4)Glc
# In short: as §1
# [26] = molecular target: Glc(a1-4)Glc(a1-4)Glc(a1-4)Glc(a1-4)Glc(a1-4)Glc(a1-4)Glc
# In short: as §1
# [27] = molecular target: Glc(a1-4)Glc(a1-4)Glc(a1-4)Glc(a1-4)Glc(a1-4)Glc(a1-4)Glc(a1-4)Glc
# In short: as §1
# [28] = molecular target: Glc(a1-4)Glc(a1-4)Glc(a1-4)Glc(a1-4)Glc(a1-4)Glc(a1-4)Glc(a1-4)Glc(a1-4)Glc
# In short: as §1
# [29] = molecular target: Glc(a1-4)Glc(a1-4)Glc(a1-4)Glc(a1-4)Glc(a1-4)Glc(a1-4)Glc(a1-4)Glc(a1-4)Glc(a1-4)Glc
# In short: as §1
# [30] = molecular target: Glc(a1-4)Glc(a1-4)Glc(a1-4)Glc(a1-4)Glc(a1-4)Glc(a1-4)Glc(a1-4)Glc(a1-4)Glc(a1-4)Glc(a1-4)Glc
# In short: as §1
# [31] = molecular target: Glc(a1-4)Glc(a1-4)Glc(a1-4)Glc(a1-4)Glc(a1-4)Glc(a1-4)Glc(a1-4)Glc(a1-4)Glc(a1-4)Glc(a1-4)Glc(a1-4)Glc
# In short: as §1
# [32] = molecular target: Glc(a1-4)Glc(a1-4)Glc(a1-4)Glc(a1-4)Glc(a1-4)Glc(a1-4)Glc(a1-4)Glc(a1-4)Glc(a1-4)Glc(a1-4)Glc(a1-4)Glc(a1-4)Glc
# In short: as §1
# [33] = molecular target: Glc(a1-4)Glc(a1-6)Glc
# In short: as §1
# [34] = molecular target: Glc(a1-6)Glc
# In short: as §1
# [35] = molecular target: Glc(a1-6)Glc(a1-4)Glc
# In short: as §1
# [36] = molecular target: Glc(a1-6)Glc(a1-4)Glc(a1-4)Glc
# In short: as §1
# [37] = molecular target: Glc(a1-6)Glc(a1-4)Glc(a1-4)Glc(a1-6)Glc(a1-4)Glc(a1-4)Glc
# In short: as §1
# [38] = molecular target: Glc(a1-6)Glc(a1-6)Glc
# In short: as §1
# [39] = molecular target: Glc(a1-6)Glc(a1-6)Glc(a1-6)Glc
# In short: as §1
# [40] = molecular target: Glc(a1-6)Glc(a1-6)Glc(a1-6)Glc(a1-6)Glc
# In short: as §1
# [41] = molecular target: Glc(a1-6)Glc(a1-6)Glc(a1-6)Glc(a1-6)Glc(a1-6)Glc
# In short: as §1
# [42] = molecular target: Glc(a1-6)Glc(a1-6)Glc(a1-6)Glc(a1-6)Glc(a1-6)Glc(a1-6)Glc
# In short: as §1
# [43] = molecular target: Glc(a1-6)Glc(a1-6)Glc(a1-6)Glc(a1-6)Glc(a1-6)Glc(a1-6)Glc(a1-6)Glc
# In short: as §1
# [44] = molecular target: Glc(a1-6)Glc(a1-6)Glc(a1-6)Glc(a1-6)Glc(a1-6)Glc(a1-6)Glc(a1-6)Glc(a1-6)Glc
# In short: as §1
# [45] = molecular target: Glc(a1-6)Glc(a1-6)Glc(a1-6)Glc(a1-6)Glc(a1-6)Glc(a1-6)Glc(a1-6)Glc(a1-6)Glc(a1-6)Glc
# In short: as §1
# [46] = molecular target: Glc(a1-6)Glc(a1-6)Glc(a1-6)Glc(a1-6)Glc(a1-6)Glc(a1-6)Glc(a1-6)Glc(a1-6)Glc(a1-6)Glc(a1-6)Glc
# In short: as §1
# [47] = molecular target: Glc(a1-6)Glc(a1-6)Glc(a1-6)Glc(a1-6)Glc(a1-6)Glc(a1-6)Glc(a1-6)Glc(a1-6)Glc(a1-6)Glc(a1-6)Glc(a1-6)Glc
# In short: as §1
# [48] = molecular target: Glc(a1-6)Glc(a1-6)Glc(a1-6)Glc(a1-6)Glc(a1-6)Glc(a1-6)Glc(a1-6)Glc(a1-6)Glc(a1-6)Glc(a1-6)Glc(a1-6)Glc(a1-6)Glc
# In short: as §1
# [49] = molecular target: Glc(b1-2)Glc
# In short: as §1
# [50] = molecular target: Glc(b1-2)Glc(b1-2)Glc
# In short: as §1
# [51] = molecular target: Glc(b1-2)Glc(b1-2)Glc(b1-2)Glc
# In short: as §1
# [52] = molecular target: Glc(b1-2)Glc(b1-2)Glc(b1-2)Glc(b1-2)Glc
# In short: as §1
# [53] = molecular target: Glc(b1-2)Glc(b1-2)Glc(b1-2)Glc(b1-2)Glc(b1-2)Glc
# In short: as §1
# [54] = molecular target: Glc(b1-2)Glc(b1-2)Glc(b1-2)Glc(b1-2)Glc(b1-2)Glc(b1-2)Glc
# In short: as §1
# [55] = molecular target: Glc(b1-2)Glc(b1-2)Glc(b1-2)Glc(b1-2)Glc(b1-2)Glc(b1-2)Glc(b1-2)Glc
# In short: as §1
# [56] = molecular target: Glc(b1-2)Glc(b1-2)Glc(b1-2)Glc(b1-2)Glc(b1-2)Glc(b1-2)Glc(b1-2)Glc(b1-2)Glc
# In short: as §1
# [57] = molecular target: Glc(b1-2)Glc(b1-2)Glc(b1-2)Glc(b1-2)Glc(b1-2)Glc(b1-2)Glc(b1-2)Glc(b1-2)Glc(b1-2)Glc
# In short: as §1
binder,measurement,setting,value
B1,glycan array binding signal (z-score),[1],-0.351
same,glycan array binding signal (z-score),[2],-0.351
same,glycan array binding signal (z-score),[3],-0.351
same,glycan array binding signal (z-score),[4],-0.351
same,glycan array binding signal (z-score),[5],-0.351
same,glycan array binding signal (z-score),[6],-0.351
same,glycan array binding signal (z-score),[7],-0.351
same,glycan array binding signal (z-score),[8],-0.351
same,glycan array binding signal (z-score),[9],-0.351
same,glycan array binding signal (z-score),[10],-0.343
same,glycan array binding signal (z-score),[11],-0.335
same,glycan array binding signal (z-score),[12],-0.346
same,glycan array binding signal (z-score),[13],-0.335
same,glycan array binding signal (z-score),[14],-0.23
same,glycan array binding signal (z-score),[15],-0.115
same,glycan array binding signal (z-score),[16],-0.341
same,glycan array binding signal (z-score),[17],-0.18
same,glycan array binding signal (z-score),[18],-0.268
same,glycan array binding signal (z-score),[19],-0.3
same,glycan array binding signal (z-score),[20],-0.231
same,glycan array binding signal (z-score),[21],-0.202
same,glycan array binding signal (z-score),[22],1.03
same,glycan array binding signal (z-score),[23],2.43
same,glycan array binding signal (z-score),[24],2.46
same,glycan array binding signal (z-score),[25],3.61
same,glycan array binding signal (z-score),[26],3.13
same,glycan array binding signal (z-score),[27],4.12
same,glycan array binding signal (z-score),[28],2.46
same,glycan array binding signal (z-score),[29],2.94
same,glycan array binding signal (z-score),[30],2.87
same,glycan array binding signal (z-score),[31],3.44
same,glycan array binding signal (z-score),[32],3.31
same,glycan array binding signal (z-score),[33],1.08
same,glycan array binding signal (z-score),[34],-0.351
same,glycan array binding signal (z-score),[35],-0.351
same,glycan array binding signal (z-score),[36],-0.286
same,glycan array binding signal (z-score),[37],2.47
same,glycan array binding signal (z-score),[38],-0.283
same,glycan array binding signal (z-score),[39],-0.351
same,glycan array binding signal (z-score),[40],-0.351
same,glycan array binding signal (z-score),[41],-0.351
same,glycan array binding signal (z-score),[42],-0.351
same,glycan array binding signal (z-score),[43],-0.351
same,glycan array binding signal (z-score),[44],-0.351
same,glycan array binding signal (z-score),[45],-0.351
same,glycan array binding signal (z-score),[46],-0.345
same,glycan array binding signal (z-score),[47],-0.351
same,glycan array binding signal (z-score),[48],-0.351
same,glycan array binding signal (z-score),[49],-0.351
same,glycan array binding signal (z-score),[50],-0.351
same,glycan array binding signal (z-score),[51],-0.351
same,glycan array binding signal (z-score),[52],-0.351
same,glycan array binding signal (z-score),[53],-0.351
same,glycan array binding signal (z-score),[54],-0.351
same,glycan array binding signal (z-score),[55],-0.351
same,glycan array binding signal (z-score),[56],-0.351
same,glycan array binding signal (z-score),[57],-0.351
